{"source": "PubChem BioAssay AID1347073", "about": "(National Center for Advancing Translational Sciences (NCATS), 2019)", "note": "Hit rate of the full screen: of about 45,000 compounds, about 200 (0.44%) were called active. Not shown: some 7% with an inconclusive outcome. Calls follow the shape of the dose curve; as a rule, active = well fitted activation curve with a large enough effect; inconclusive = small, poorly fitted or top-dose-only effect; inactive = no such curve, though single readings can be large or run the other way. Some of the results follow.", "data": [{"assay": "qHTS of TDP-43 Inhibitors: NCGC Sytravon Library Screen; also: 0% is about no effect; nearly all actives have a fitted effect of over 55% in size", "details": "yeast TDP-43 toxicity rescue, BacTiter-Glo growth, 24 h; series mostly up to 46.1 µM; growth rescue (activation): at the top concentration", "method_in_brief": "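TDP-43-expressing yeast, pregrown in raffinose, seeded at OD600 0.02 in galactose medium with compound for 24 hr at 30 deg C. Growth read by BacTiter-Glo luminescence, so rescue of toxicity appears as activation.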", "values": [{"smiles": "CC(C)(C)OC(=O)N1CCC[C@H]1c1nnc(SCC(=O)Nc2cccc(Cl)c2)o1", "growth rescue (activation)": "inactive: 19.1%"}, {"smiles": "Cc1cccc(C(=O)NCCNC(=O)c2cnccn2)c1", "growth rescue (activation)": "inactive: 14%"}, {"smiles": "O=C(Cn1c(SCC(=O)NC2CCCC2)nnc1-c1ccncc1)Nc1ccc2c(c1)OCO2", "growth rescue (activation)": "inactive: 29.3%"}, {"smiles": "Cn1c(-c2ccccc2)c(/C=N/NC(=O)c2cccnc2)c2ccccc21", "growth rescue (activation)": "inactive: 9.65%"}, {"smiles": "Cc1ccc2[nH]cc(S(=O)(=O)c3ccc(C)c(C)c3)c(=O)c2c1", "growth rescue (activation)": "inactive: 12.6%"}, {"smiles": "O=C(Cc1ccc(F)cc1)NC1CCSC1=O", "note": "(centres undefined)", "growth rescue (activation)": "inactive: 2.89%"}, {"smiles": "CC(=O)c1c(C)[nH]c(C(=O)COc2ccc(C#N)cc2)c1C", "growth rescue (activation)": "inactive: 17.2%"}, {"smiles": "CCc1cc2c(C)ccc(C)c2nc1SCC(=O)Nc1c[nH]c(=O)[nH]c1=O", "growth rescue (activation)": "inactive: 17.1%"}, {"smiles": "O=C(OCN1C(=O)c2ccccc2C1=O)c1ccc(Cl)nc1", "growth rescue (activation)": "inactive: 18.2%"}, {"smiles": "CC(C)N1CCN(Cc2cccc(-c3ccco3)c2)CC1CCO", "note": "(centres undefined)", "growth rescue (activation)": "inactive: 11.3%"}, {"smiles": "CN1C(=O)C(CC(=O)Nc2ccc(F)cc2)N(Cc2cccs2)C1=S", "note": "(centres undefined)", "growth rescue (activation)": "inactive: -0.768%"}, {"smiles": "O=C(CCNC(=O)c1ccco1)Nc1ccc(SC(F)F)cc1", "growth rescue (activation)": "inactive: 2.18%"}, {"smiles": "Cc1cc(C)c[n+](-c2nc3ccccc3nc2[N-]S(=O)(=O)c2cccs2)c1", "growth rescue (activation)": "inactive: 6.41%"}, {"smiles": "Nc1cc(C(=O)O)ccc1Sc1ccccc1C(=O)O", "growth rescue (activation)": "inactive: 3.6%"}, {"smiles": "CC1(c2ccc3ccccc3c2)NC(=O)N(CC(=O)O)C1=O", "note": "(centres undefined)", "growth rescue (activation)": "inactive: 12.9%"}, {"smiles": "O=S1(=O)N=C(N(Cc2cccs2)c2ccc(O)cc2)c2ccccc21", "growth rescue (activation)": "inactive: -11.7%"}, {"smiles": "COc1cc(C)ccc1OCCOCCOc1ccccc1[N+](=O)[O-]", "growth rescue (activation)": "inactive: 35.8%"}, {"smiles": "NS(=O)(=O)c1ccc(CCNC(=S)Nc2ccccc2)cc1", "growth rescue (activation)": "inactive: 8.93%"}, {"smiles": "Cc1ccccc1N1CC(C(=O)NC2CCCC2)CC1=O", "note": "(centres undefined)", "growth rescue (activation)": "inactive: 3.42%"}, {"smiles": "CCN(C(=O)CSc1ncccc1C(=O)O)C1CCCCC1", "growth rescue (activation)": "inactive: 0.732%"}, {"smiles": "COc1cc(NC(=O)c2cccc3c(-c4cnn(C)c4)coc23)cc(OC)c1OC", "growth rescue (activation)": "inactive: 19.1%"}, {"smiles": "COc1ccccc1CNC(=S)Nc1ccc(S(N)(=O)=O)cc1", "growth rescue (activation)": "inactive: -1.58%"}, {"smiles": "O=C(NCc1cccs1)C1CCCN1C(=O)Nc1ccc(F)cc1", "note": "(centres undefined)", "growth rescue (activation)": "inactive: 36.5%"}, {"smiles": "O=C(COC(=O)c1ccc([N+](=O)[O-])o1)Nc1nc2ccccc2s1", "growth rescue (activation)": "inactive: 11.6%"}, {"smiles": "Cn1cnnc1Sc1ccc(C(=O)NCCC23CC4CC(CC(C4)C2)C3)cc1[N+](=O)[O-]", "growth rescue (activation)": "inactive: -11.9%"}, {"smiles": "NNC(=O)c1ccc(COc2ccc3c(c2)CCC3)cc1", "growth rescue (activation)": "inactive: 23.1%"}, {"smiles": "CN(C)c1ccc(S(=O)(=O)NCC(=O)NCC2CCCCC2)cc1[N+](=O)[O-]", "growth rescue (activation)": "inactive: 10.3%"}, {"smiles": "Cc1sc2nc(C(C)C)nc(SCC(=O)NC3CC3)c2c1C", "growth rescue (activation)": "inactive: -2.77%"}, {"smiles": "COc1ccc(N=C2SC(CC(=O)Nc3ccc(F)cc3)C(=O)N2Cc2ccco2)cc1", "note": "(centres undefined)", "growth rescue (activation)": "inactive: 5.92%"}, {"smiles": "CCc1cc(=O)oc2c3c(cc(OCC(=O)NCCC(=O)O)c12)OC(C)(C)CC3", "growth rescue (activation)": "inactive: -3.64%"}, {"smiles": "CC(OC(=O)C1=Cc2ccccc2OC1)C(=O)NCC1CCCO1", "note": "(centres undefined)", "growth rescue (activation)": "inactive: -12.8%"}, {"smiles": "Cc1ccc(S(=O)(=O)NCCc2ccncc2)cc1[N+](=O)[O-]", "growth rescue (activation)": "inactive: 2.82%"}, {"smiles": "NS(=O)(=O)c1ccc(NC(=S)NC(=O)C2CCCCC2)cc1", "growth rescue (activation)": "inactive: 15.4%"}, {"smiles": "Fc1cccc(Cl)c1CNCc1cccnc1", "growth rescue (activation)": "inactive: -4.27%"}, {"smiles": "COc1cc(C(=O)O)c2ccccc2n1", "growth rescue (activation)": "inactive: 7.62%"}, {"smiles": "C/C(=N/NS(=O)(=O)c1ccc(C)cc1)c1c(O)c2ccccc2oc1=O", "growth rescue (activation)": "inactive: 20.1%"}, {"smiles": "CC(C)c1nnc(NC(=O)c2cccc(NC(=O)C(F)(F)F)c2)s1", "growth rescue (activation)": "inactive: 16%"}, {"smiles": "Cc1[nH]n(-c2ccccc2)c(=O)c1/C=N\\NC(=O)C1COc2ccccc2O1", "note": "(centres undefined)", "growth rescue (activation)": "inactive: -0.699%"}, {"smiles": "Cc1ccc2cc(CN(C(=O)c3ccco3)c3cccc(C)c3C)c(=O)[nH]c2c1", "growth rescue (activation)": "inactive: 4.71%"}, {"smiles": "FC(F)(F)c1cc(N2CCOCC2)nc(-c2ccccc2)n1", "growth rescue (activation)": "inactive: -1.74%"}, {"smiles": "CCOC(=O)c1c(C)[nH]c(C)c1C(=O)COC(=O)COc1ccc(Cl)c(C)c1", "growth rescue (activation)": "inactive: -16.9%"}, {"smiles": "CC(C)CC(OC(=O)c1ccco1)C(=O)NC1CCCC1", "note": "(centres undefined)", "growth rescue (activation)": "inactive: -4.63%"}, {"smiles": "O=C(Nc1cccc(S(=O)(=O)NCc2ccco2)c1)c1cc(-c2ccc(F)cc2)nc2ccccc12", "growth rescue (activation)": "inactive: 13.5%"}, {"smiles": "CC(C)CNC(=O)c1cccc2c(-c3cccnc3)coc12", "growth rescue (activation)": "inactive: 0.909%"}, {"smiles": "O=[N+]([O-])C(=C1SCCS1)C(=C(Cl)Cl)N1CCCCC1", "growth rescue (activation)": "inactive: 39.5%"}, {"smiles": "Fc1cccc(/C=N/Nc2ccc3ccccc3n2)c1", "growth rescue (activation)": "inactive: 22.6%"}, {"smiles": "Cc1ccc(CN2CCSc3ccc(C(=O)NCc4ccc(OC(C)C)cc4)cc32)cc1", "growth rescue (activation)": "inactive: 9%"}, {"smiles": "COc1ccccc1-c1c(C)nn2c(-c3ccccc3)cc(-c3ccccc3)nc12", "growth rescue (activation)": "inactive: 5.38%"}, {"smiles": "O=C(COC(=O)CCc1ccccc1)Nc1ccc(F)cc1Cl", "growth rescue (activation)": "inactive: -4.3%"}, {"smiles": "COc1cc2c(cc1OC)CN(Cc1cc(OC)c3c(c1)OCO3)CC2", "growth rescue (activation)": "inactive: 2.72%"}, {"smiles": "Cn1c(NCCc2ccncc2)nc2cc(-c3ccccc3)sc2c1=O", "growth rescue (activation)": "inactive: 1.66%"}, {"smiles": "O=C(CSc1ncnc2scc(-c3ccccc3)c12)NC1CCS(=O)(=O)C1", "note": "(centres undefined)", "growth rescue (activation)": "inactive: 12.5%"}, {"smiles": "COc1ccccc1NC(=O)Cc1noc(CSc2n[nH]c(N)n2)n1", "growth rescue (activation)": "inactive: 4.99%"}, {"smiles": "CC(NC(=O)C(=O)NCCN1CCN(C(=O)c2ccc([N+](=O)[O-])cc2)CC1)c1ccccc1", "note": "(centres undefined)", "growth rescue (activation)": "inactive: 8.52%"}]}]}
